Test results reported in article PMC4336329 (PLoS ONE, 2015).
In all, about 310,000 compounds went through this assay and about 14,000 (4.5%) showed an effect of 50% or more. Effects have a minus sign here. This is one part of the list.

Biological target: human ether-à-go-go-related gene (hERG) potassium channel (human, UniProt Q12809)
Experiment: primary screen, population patch clamp on CHO cells stably expressing hERG
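Further: peak tail current of the secondary pulse compared with the same well before compound.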

Sequence of human ether-à-go-go-related gene (hERG) potassium channel (Q12809 whole entry, looked up): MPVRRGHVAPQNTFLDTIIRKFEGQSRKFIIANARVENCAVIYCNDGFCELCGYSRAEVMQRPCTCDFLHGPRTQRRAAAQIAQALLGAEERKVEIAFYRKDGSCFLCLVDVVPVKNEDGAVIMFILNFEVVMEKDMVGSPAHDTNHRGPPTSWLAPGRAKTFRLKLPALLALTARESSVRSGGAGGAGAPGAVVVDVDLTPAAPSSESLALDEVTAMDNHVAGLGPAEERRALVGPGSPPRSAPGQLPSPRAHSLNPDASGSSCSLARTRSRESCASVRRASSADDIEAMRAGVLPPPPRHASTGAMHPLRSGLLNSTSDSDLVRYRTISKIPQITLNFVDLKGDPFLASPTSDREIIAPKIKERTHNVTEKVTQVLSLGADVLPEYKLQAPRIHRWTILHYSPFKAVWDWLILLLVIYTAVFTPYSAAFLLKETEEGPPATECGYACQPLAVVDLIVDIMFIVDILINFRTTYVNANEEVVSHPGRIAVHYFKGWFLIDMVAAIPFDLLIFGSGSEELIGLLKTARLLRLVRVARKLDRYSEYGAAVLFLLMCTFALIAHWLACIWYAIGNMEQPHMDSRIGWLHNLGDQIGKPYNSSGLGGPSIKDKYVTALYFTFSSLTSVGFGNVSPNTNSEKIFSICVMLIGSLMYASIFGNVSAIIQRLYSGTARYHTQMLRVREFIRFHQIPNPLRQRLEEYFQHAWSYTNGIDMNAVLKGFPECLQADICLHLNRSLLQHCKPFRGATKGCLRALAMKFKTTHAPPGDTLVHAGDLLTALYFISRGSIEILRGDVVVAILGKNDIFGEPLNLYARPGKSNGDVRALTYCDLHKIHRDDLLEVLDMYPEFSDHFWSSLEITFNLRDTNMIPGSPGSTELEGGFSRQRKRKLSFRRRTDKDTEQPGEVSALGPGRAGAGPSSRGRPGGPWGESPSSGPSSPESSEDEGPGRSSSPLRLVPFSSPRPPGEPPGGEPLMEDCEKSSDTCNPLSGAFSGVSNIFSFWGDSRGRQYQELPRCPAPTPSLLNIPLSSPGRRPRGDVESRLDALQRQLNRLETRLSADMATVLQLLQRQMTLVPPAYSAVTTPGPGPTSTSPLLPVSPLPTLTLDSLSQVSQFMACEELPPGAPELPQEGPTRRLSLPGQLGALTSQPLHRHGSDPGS

SMILES | hERG current change (%, negative = inhibition) at 10uM
Cc1ccc(-n2c(C)cc(/C=C3\SC(=O)NC3=O)c2C)cc1 | 0.188%
CCCNC(=O)CCC(=O)Nc1ncc(-c2ccc(C)cc2)n1C | 1.03%
Cc1ccc(N(C(=O)Cc2cccs2)C2C=CS(=O)(=O)C2)cc1Cl (stereo not shown) | -41.6%
COc1cc(NC(=O)CCc2nnc3ccc(NCc4ccco4)nn23)cc(OC)c1 | 4.52%
Cc1cccc(OC(=O)c2cncc(Br)c2)c1 | 7.83%
NNC(=O)CNc1ccccc1Cl | 13.9%
CCn1nnc(NC(=O)c2ccco2)n1 | 20.6%
COc1cc(CCC(=O)Nc2cc(Cl)ccc2N2CCN(C)CC2)cc(OC)c1OC | -10.2%
COc1cc2[nH]c(C(=O)NCC3CCCO3)cc2c(OC)c1OC (stereo not shown) | 20.5%
Cc1nc2c(cc1NC(=O)C(C)(C)C)nc(C)n2Cc1ccccc1 | 2.81%
C=CCNC(=O)C1CC(c2cccc(OC)c2)=NO1 (stereo not shown) | 8.01%
O=C1NC(=Nc2ccccc2Cl)SC1(CO)CO | 11%
O=[N+]([O-])c1cccc(NP(=O)(Oc2ccccc2)Oc2ccccc2)c1 | -0.535%
Cl.OCCN(Cc1ccccc1)CC(O)COc1ccc2c(c1)OCO2 (stereo not shown) | -8.77%
COc1ccc(C(=O)NCc2cn3ccccc3n2)cc1 | -5.56%
Cc1ccc(S(=O)(=O)Nc2ccc(-c3cn4ccc(C)cc4n3)cc2)cc1 | 0.0747%
COCc1ccc(C(=O)N2CCCC(C(=O)c3cc(F)ccc3F)C2)s1 (stereo not shown) | -2.39%
COc1ccc(CNC(=O)c2cc(=O)c3ccccc3o2)cc1 | 6.31%
CC(C)OCCCNC(=O)c1ccc(NS(C)(=O)=O)cc1 | -7.42%
O=C(NCc1nnc2c(C(F)(F)F)cc(Cl)cn12)c1ccc2c(c1)OCO2 | 5.23%

SMILES | hERG current change (%, negative = inhibition) at 10uM
COc1cc(C(=O)N2CCCCC2)ccc1OCC(=O)Nc1ccc(F)cc1 | -18.3%
COC(=O)/C(C#N)=C/c1c(Oc2cccc(C)c2)nc2ccccn2c1=O | -26.8%
CCC(NC(=O)c1cncc(Br)c1)c1ccccc1 (stereo not shown) | 8.8%
COc1ccc(/C=C/C(=O)NCCC(=O)N2CCCN(C)CC2)cc1 | -1.57%
COCCN(Cc1ccccc1)P(=O)(O)c1ccccc1OCC(=O)O | 5.81%
CC1CCN(CCn2c(=S)[nH]c3cc4c(cc3c2=O)OCO4)CC1 | -27.4%
CCO/C=C/C(O)(CNC(=O)c1ccc(C(C)(C)C)cc1)C(F)(F)F (stereo not shown) | -7.57%
Cc1cc(C)cc(OCCN2CCOCC2)c1 | 15.5%
O=C(NCc1ccccc1Cl)C1CCCO1 (stereo not shown) | 10.6%
Cc1ccc(NC(=O)CNC(=O)N2CC(=O)Nc3ccccc32)cc1F | 1.74%
CCC(C)NC(=O)c1ccc(CSc2nc3ccncc3n2Cc2ccc(F)cc2)cc1 (stereo not shown) | -59%
COc1ccccc1/C=[N+](\[O-])C1SC(=S)N(C)C1(C)C (stereo not shown) | 15.1%
COc1ccc(NC(=O)CN(C)S(=O)(=O)c2ccc3c(c2)CCC(=O)N3)c(OC)c1 | -37.1%
Cc1ccc(C)c(N(C)S(=O)(=O)c2cccc3nsnc23)c1 | -18.4%
Cc1cc(NC(=O)COC(=O)C2CCN(C(=O)c3ccc(Cl)cc3)CC2)no1 | -19.2%
O=C1N/C(=C/c2ccc(N3CCOCC3)cc2)C(=O)N1Cc1ccc(F)cc1 | 22.1%
CCOC(=O)N1CCN(C(=O)CS(=O)(=O)Cc2nc(-c3ccccc3C)oc2C)CC1 | -44.4%
COc1cccc(C(=O)NNC(=O)Cc2ccc(Cl)cc2)c1 | 10.4%
O=C(O)/C(=C\c1cccc(F)c1)c1ccc(S(=O)(=O)N2CCCCC2)s1 | 8.72%
COc1ccc(-c2cccc(C(=O)N3CCOCC3)c2)cc1 | 7.94%

SMILES | hERG current change (%, negative = inhibition) at 10uM
Cn1c(-c2ccc(F)cc2)cnc1SCC(=O)NCc1ccco1 | -9.84%
CC1CCc2nc3ccccc3c(C(=O)OCC(=O)N3CCc4ccccc43)c2C1 (stereo not shown) | 17.5%
Fc1ccc(C2=Nn3c(Cc4ccccc4F)nnc3SC2)cc1 | 15.4%
Cc1ccc2c(c1)C1CN(C)CCC1N2C(=O)COc1ccc(N(C)S(=O)(=O)c2cccs2)cc1 (stereo not shown) | -52.9%
COc1ccc(OC)c(NC(=O)CN(C)CC(=O)Nc2ccccc2Cl)c1 | -12.7%
OCCN(Cc1ccccc1)c1ncnc2sccc12 | 4.93%
CC(=O)c1c(O)ccc2c(-c3ccccc3)cc(=O)oc12 | -15.6%
O=c1[nH]c2ccccc2nc1/C=C(\O)C1CC1 | 9.7%
C/C(=N/N=C(/C)c1cccs1)c1cccs1 | 16.9%
CCn1cc(CN2CCN(CCC(C)C)C(CCO)C2)c2ccccc21 (stereo not shown) | -31.9%
CCN(CC)CCNC(=O)C1(O)c2cc(Br)ccc2NC(=O)N1c1ccc(Cl)cc1 (stereo not shown) | 9.81%
COc1cc(Br)c(CNCCc2ccc3c(c2)OCO3)cc1OC | -32%
Br.CC1(C)N=C(N)NC(Nc2ccc(Br)cc2)=N1 | 9.95%
NS(=O)(=O)c1ccc(NC(=O)CCc2ccccc2)cc1 | -5.76%
COc1ccc(S(=O)(=O)Nc2ccc(O)c(Sc3ncn[nH]3)c2)cc1 | 7.39%
Cn1c(=O)n(C)c2cc(NS(=O)(=O)c3cccs3)ccc21 | 6.18%
Cc1ccc(S(=O)(=O)C(C#N)c2nc3ccccc3nc2N2CCCC2)cc1 (stereo not shown) | -18.3%
O=[N+]([O-])c1ccccc1-c1ccc(C(=S)N2CCCC2)o1 | 9.34%
